According to paper PMC8807876:
Results are given in words; binding and its absence hold for the method and conditions named. Binding seen in cells or lysates may run through a third protein. Some results given as binding are weak or reduced against the parent protein; the word gives no strength.

What was measured:
[1] = target: T1, endogenous MTBP (human (endogenous in 293T)) (UniProt Q96DY7); assay: co-IP; Fig 3B: N-terminally 3HA-tagged Treslin/TICRR fragments transiently transfected into 293T; IP of endogenous MTBP with rabbit anti-MTBP (amino acids 1-284) on protein G magnetic beads, control IgG IP; 20 mM Hepes, 200 mM NaCl, 10% glycerol, 0.1% Triton; anti-HA immunoblot
T1 sequence: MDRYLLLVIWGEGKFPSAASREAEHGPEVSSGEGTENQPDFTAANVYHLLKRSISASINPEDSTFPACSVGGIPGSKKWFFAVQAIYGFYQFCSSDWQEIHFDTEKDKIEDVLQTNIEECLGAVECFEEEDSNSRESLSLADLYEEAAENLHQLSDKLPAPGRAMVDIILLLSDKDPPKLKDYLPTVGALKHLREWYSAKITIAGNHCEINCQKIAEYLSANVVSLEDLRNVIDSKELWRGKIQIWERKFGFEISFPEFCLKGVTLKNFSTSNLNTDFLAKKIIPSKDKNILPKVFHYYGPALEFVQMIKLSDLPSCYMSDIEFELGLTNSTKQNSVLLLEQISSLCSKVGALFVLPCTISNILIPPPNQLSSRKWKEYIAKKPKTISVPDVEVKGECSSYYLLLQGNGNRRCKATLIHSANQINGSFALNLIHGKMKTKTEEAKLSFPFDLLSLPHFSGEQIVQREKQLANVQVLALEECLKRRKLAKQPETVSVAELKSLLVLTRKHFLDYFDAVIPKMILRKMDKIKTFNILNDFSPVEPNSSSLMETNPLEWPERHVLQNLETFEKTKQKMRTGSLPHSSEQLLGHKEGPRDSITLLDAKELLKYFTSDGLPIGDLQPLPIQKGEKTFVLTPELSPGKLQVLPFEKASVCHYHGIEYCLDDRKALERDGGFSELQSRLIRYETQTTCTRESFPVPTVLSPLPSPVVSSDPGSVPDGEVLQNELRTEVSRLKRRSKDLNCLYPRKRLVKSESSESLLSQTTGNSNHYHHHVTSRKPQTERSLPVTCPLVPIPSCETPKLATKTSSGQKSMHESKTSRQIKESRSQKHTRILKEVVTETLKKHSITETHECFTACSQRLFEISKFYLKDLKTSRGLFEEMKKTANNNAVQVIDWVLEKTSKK

[2] = target: GFP-Flag-Treslin/TICRR-WT (human) (UniProt Q7Z2Z1); assay: co-IP; Fig 4D: GFP-Flag-Treslin/TICRR-WT or core transiently transfected into 293T; native lysates (20 mM Hepes, 300 mM NaCl, 10% glycerol, 0.1% Triton, 2 mM EDTA), anti-GFP nanobody IP or empty control beads; immunoblot with rat anti-MTBP (12H7)

B1: 3HA-Treslin/TICRR, N-terminal 486 amino acids (domain or fragment, UniProt Q7Z2Z1 1-486)
chain: MACCHKVMLLLDTAGGAARHSRVRRAALRLLTYLSCRFGLARVHWAFKFFDSQGARSRPSRVSDFRELGSRSWEDFEEELEARLEDRAHLPGPAPRATHTHGALMETLLDYQWDRPEITSPTKPILRSSGRRLLDVESEAKEAEAALGGLVNAVFLLAPCPHSQRELLQFVSGCEAQAQRLPPTPKQVMEKLLPKRVREVMVARKITFYWVDTTEWSKLWESPDHLGYWTVCELLHHGGGTVLPSESFSWDFAQAGEMLLRSGIKLSSEPHLSPWISMLPTDATLNRLLYNSPEYEASFPRMEGMLFLPVEAGKEIQETWTVTLEPLAMHQRHFQKPVRIFLKGSVAQWSLPTSSTLGTDSWMLGSPEESTATQRLLFQQLVSRLTAEELHLVADVDPGEGRPPITGVISPLSASAMILTVCRTKEAEFQRHVLQTAVADSPRDTASLFSDVVDSILNQTHDSLADTASAASPVPEWAQQELGHTT
binding [1]: no binding

B2: 3HA-Treslin/TICRR, N-terminal 557 amino acids (domain or fragment, UniProt Q7Z2Z1 1-557)
chain: MACCHKVMLLLDTAGGAARHSRVRRAALRLLTYLSCRFGLARVHWAFKFFDSQGARSRPSRVSDFRELGSRSWEDFEEELEARLEDRAHLPGPAPRATHTHGALMETLLDYQWDRPEITSPTKPILRSSGRRLLDVESEAKEAEAALGGLVNAVFLLAPCPHSQRELLQFVSGCEAQAQRLPPTPKQVMEKLLPKRVREVMVARKITFYWVDTTEWSKLWESPDHLGYWTVCELLHHGGGTVLPSESFSWDFAQAGEMLLRSGIKLSSEPHLSPWISMLPTDATLNRLLYNSPEYEASFPRMEGMLFLPVEAGKEIQETWTVTLEPLAMHQRHFQKPVRIFLKGSVAQWSLPTSSTLGTDSWMLGSPEESTATQRLLFQQLVSRLTAEELHLVADVDPGEGRPPITGVISPLSASAMILTVCRTKEAEFQRHVLQTAVADSPRDTASLFSDVVDSILNQTHDSLADTASAASPVPEWAQQELGHTTPWSPAVVEKWFPFCNISGASSDLMESFGLLQAASANKEESSKTEGELIHCLAELYQRKSREESTIAHQEDS
binding [1]: binds

B3: 3HA-Treslin/TICRR fragment, amino acids 260–671 (domain or fragment, UniProt Q7Z2Z1 260-671)
chain: LRSGIKLSSEPHLSPWISMLPTDATLNRLLYNSPEYEASFPRMEGMLFLPVEAGKEIQETWTVTLEPLAMHQRHFQKPVRIFLKGSVAQWSLPTSSTLGTDSWMLGSPEESTATQRLLFQQLVSRLTAEELHLVADVDPGEGRPPITGVISPLSASAMILTVCRTKEAEFQRHVLQTAVADSPRDTASLFSDVVDSILNQTHDSLADTASAASPVPEWAQQELGHTTPWSPAVVEKWFPFCNISGASSDLMESFGLLQAASANKEESSKTEGELIHCLAELYQRKSREESTIAHQEDSKKKRGVPRTPVRQKMNTMCRSLKMLNVARLNVKAQKLHPDGSPDVAGEKGIQKIPSGRTVDKLEDRGRTLRSSKPKDFKTEEELLSYIRENYQKTVATGEIMLYACARNMISTV
binding [1]: binds

B4: endogenous MTBP (protein, UniProt Q96DY7 1-904)
chain: MDRYLLLVIWGEGKFPSAASREAEHGPEVSSGEGTENQPDFTAANVYHLLKRSISASINPEDSTFPACSVGGIPGSKKWFFAVQAIYGFYQFCSSDWQEIHFDTEKDKIEDVLQTNIEECLGAVECFEEEDSNSRESLSLADLYEEAAENLHQLSDKLPAPGRAMVDIILLLSDKDPPKLKDYLPTVGALKHLREWYSAKITIAGNHCEINCQKIAEYLSANVVSLEDLRNVIDSKELWRGKIQIWERKFGFEISFPEFCLKGVTLKNFSTSNLNTDFLAKKIIPSKDKNILPKVFHYYGPALEFVQMIKLSDLPSCYMSDIEFELGLTNSTKQNSVLLLEQISSLCSKVGALFVLPCTISNILIPPPNQLSSRKWKEYIAKKPKTISVPDVEVKGECSSYYLLLQGNGNRRCKATLIHSANQINGSFALNLIHGKMKTKTEEAKLSFPFDLLSLPHFSGEQIVQREKQLANVQVLALEECLKRRKLAKQPETVSVAELKSLLVLTRKHFLDYFDAVIPKMILRKMDKIKTFNILNDFSPVEPNSSSLMETNPLEWPERHVLQNLETFEKTKQKMRTGSLPHSSEQLLGHKEGPRDSITLLDAKELLKYFTSDGLPIGDLQPLPIQKGEKTFVLTPELSPGKLQVLPFEKASVCHYHGIEYCLDDRKALERDGGFSELQSRLIRYETQTTCTRESFPVPTVLSPLPSPVVSSDPGSVPDGEVLQNELRTEVSRLKRRSKDLNCLYPRKRLVKSESSESLLSQTTGNSNHYHHHVTSRKPQTERSLPVTCPLVPIPSCETPKLATKTSSGQKSMHESKTSRQIKESRSQKHTRILKEVVTETLKKHSITETHECFTACSQRLFEISKFYLKDLKTSRGLFEEMKKTANNNAVQVIDWVLEKTSKK
binding [2]: binds
